# Source: paper PMC10668032
# The list shows a part of the results. At the low end of the ranking, values are background and their order means little.
# Molecular target: SIX1 homeodomain (reference allele) (UniProt Q15475)
# Assay: universal protein binding microarray
# Settings: Universal all-10-mer PBM (8x60K, AMADID 030236), 300 nM GST-tagged protein, Alexa Fluor 488 anti-GST; buffer, salt, pH and temperature not stated; high values mean tight binding; most listed sequences are background and not binding sites; double strand, one strand shown
row,Sequence,binding signal [E-score]
1,ACAGTCAC,-0.275
2,CCGCTAGC,-0.00511
3,ACATTCAA,-0.198
4,ATCTACAA,0.0674
5,ATACCCGA,0.407
6,ATTACCGA,0.0641
7,CTGGCGAA,-0.154
8,AACGTTAA,-0.23
9,CCTATTTC,-0.025
10,AAAGGTCA,-0.264
11,ACCTACAG,0.0234
12,CCATCTTC,-0.0562
13,CACCAAAG,0.15
14,GATAATTA,0.116
15,GATTCTGA,-0.0792
16,GGTGATAA,0.154
17,ATCGGGCC,0.188
18,GTTTACTA,-0.0491
19,AACTCGGG,-0.024
20,GGGTCACA,0.057
21,AGACTCCG,-0.271
22,GTCACCGA,-0.00109
23,ACGGGAGG,0.0184
24,ACTTCCTC,-0.117
25,AGATGATG,0.107

row,Sequence,binding signal [E-score]
1,CGAGATTA,0.0713
2,GTGAATAA,-0.153
3,CTTGCGAA,-0.112
4,AATGTACC,0.0585
5,CCGGTAGG,-0.023
6,AACCTCAG,-0.0146
7,ACTGGTCC,-0.162
8,ATAAGTTG,-0.0821
9,TCCCCCGA,0.0421
10,CAAGAAGC,-0.126
11,ATCAATCA,0.221
12,ATGCGGCG,-0.119
13,CCGCGGCC,0.00162
14,GACGTTCA,-0.0935
15,ATTGACTC,0.0905
16,ACCAAGCT,-0.11
17,ACCGTCCC,-0.0758
18,CTTATTGA,0.0908
19,GTAGGCAC,-0.225
20,CTTTGCTC,-0.267
21,TCCAGCAA,0.107
22,ACACGCCT,-0.0967
23,AATTAGCA,-0.0445
24,AGGAACGC,-0.198
25,CTTGCGCA,-0.0968

row,Sequence,binding signal [E-score]
1,ACCATAAT,0.0231
2,GATGGGAA,-0.113
3,AGGATCCG,0.308
4,ACCGAGCT,0.0236
5,AACGTGAT,0.255
6,GTGGAGCA,-0.00382
7,TAGACATA,0.01
8,GATTTGCC,-0.104
9,CTAGTAGA,0.113
10,TCATGCCA,0.0697
11,CGATTCGC,-0.0191
12,CAGTCCTC,-0.193
13,CTTGACTA,-0.12
14,CCTACAGC,0.00855
15,GAGCCGAA,-0.0759
16,AAGTCAGC,-0.335
17,ACTGGGCA,-0.183
18,AAGACTTG,-0.181
19,ATACTCTC,0.303
20,AGTTACAT,-0.166
21,AAAATAAC,-0.138
22,CAGAACAC,0.0161
23,CGCGTCGA,0.0963
24,ATTTACGC,-0.286
25,ATTTGCAG,0.0624

row,Sequence,binding signal [E-score]
1,GAATTTAC,-0.171
2,ACAGGGAC,-0.141
3,ATGGGAAA,-0.259
4,ACTACTCA,-0.0909
5,ACTTCAAG,-0.047
6,GTGAATCA,-0.193
7,AGATCCCA,0.213
8,AAAGATTC,-0.0648
9,GAAACAGA,-0.27
10,CCCGTAAC,-0.151
11,CGTTTTTC,-0.158
12,ACATGAGA,0.183
13,ACTGATTC,-0.0918
14,ACATGAAG,-0.181
15,AATATGTC,0.0058
16,CAAAGACC,-0.182
17,AAATTGTG,-0.141
18,GCCGTCAA,-0.242
19,AAGCTTGG,-0.249
20,GCATTAGA,-0.0366
21,CGTCCCAG,-0.0861
22,CACAGCGC,-0.148
23,AATCCCTC,0.203
24,AGCGTTTA,-0.3
25,GCCTAGCA,-0.134

row,Sequence,binding signal [E-score]
1,GACTTCCC,-0.152
2,AAGTATAT,0.184
3,ATATGCAG,0.222
4,AGACCCCT,0.102
5,CCAGGTTA,-0.0037
6,ACTTCCGC,-0.164
7,TCTCCGCA,-0.0758
8,GGAAGGAC,-0.292
9,AACGACGC,-0.241
10,GCAAGCGA,-0.0703
11,ACGGTTCT,-0.149
12,ATCATGAC,0.197
13,CCAGAGAC,0.00835
14,AGGGCTGC,-0.137
15,CCGCAATC,0.0789
16,ACTCTTTC,-0.167
17,ATATTTTG,0.0076
18,ATCATAGG,0.205
19,ACAAGTTC,-0.0948
20,ACCAAGTC,-0.179
21,ATGCTAAA,-0.0576
22,TGACTGCA,-0.17
23,GGAGTAGA,0.253
24,GCTAGAGA,0.0858
25,AGTCGATA,0.257

row,Sequence,binding signal [E-score]
1,TATAAAGA,-0.00647
2,AGATCTAG,0.141
3,ACAATCAC,-0.13
4,ATAAGCTG,-0.105
5,ACAAGTAC,-0.0929
6,TCAGAACA,0.0594
7,ACCATCTA,0.159
8,GCAGAGTA,0.0448
9,CGGTAATA,0.23
10,AACAGGCC,-0.319
11,GATACATA,0.398
12,GCCAGGCA,-0.12
13,CCAACTCA,-0.193
14,CTCTGTAA,-0.18
15,AGCGATCG,0.211
16,AGGTAAGA,0.0217
17,GCCCGCAA,-0.123
18,CAGCTCGG,-0.0111
19,AGCCTGGC,-0.189
20,AAATGAAA,-0.0036
21,ACCAGCGT,-0.037
22,AAGCTGTC,-0.213
23,AATATTAT,0.11
24,CCTCTTAC,-0.125
25,CTGTACGA,-0.0788

row,Sequence,binding signal [E-score]
1,CTCATCCA,0.129
2,ACTAGCTA,-0.0268
3,GCCCCAGC,-0.0188
4,CTCGCCGC,-0.0499
5,AACCTGCG,-0.119
6,TACAACCA,-0.0112
7,GCCAAGAA,-0.0857
8,GCGCTTCC,-0.224
9,AGACTGCT,-0.265
10,CATCCGGG,0.166
11,CATATCCC,0.352
12,GCCGTAAA,-0.133
13,GGCTGGCA,-0.244
14,CCGGCGTC,0.0305
15,CATTCAGA,-0.0954
16,ATAACCAT,0.134
17,CCAGAACC,-0.0578
18,ATCTGAAC,0.179
19,AACGTAAA,-0.146
20,GTGTCCCA,0.204
21,AACGTAAG,-0.287
22,GGGCTTGA,-0.183
